Measurements as given in the supplement of paper PMC4166925.
± gives the standard deviation of the averaged measurements. The full ranking holds about 33,000 sequences; the median of “E-score (dimensionless, -0.5 to 0.5)” is about -0.046, and the highest 2% start at about 0.36. This is one part of the list.

Tested on: T1, SpTbr T-box DNA-binding domain (GST fusion)
T1 sequence: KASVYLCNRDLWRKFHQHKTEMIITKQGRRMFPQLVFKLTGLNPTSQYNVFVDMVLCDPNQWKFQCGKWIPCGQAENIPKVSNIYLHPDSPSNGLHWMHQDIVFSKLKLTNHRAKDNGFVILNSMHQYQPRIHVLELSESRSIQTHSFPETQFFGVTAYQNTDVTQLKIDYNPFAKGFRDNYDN
Test: PBM E-score of 8-mer (E-score (dimensionless, -0.5 to 0.5)); Tbr is Tbrain of the sea star Patiria miniata (Pm) or the sea urchin Strongylocentrotus purpuratus (Sp); higher = stronger binding preference; most listed sequences are background and not binding sites
Conditions: the construct has about 5 more residues each side
Outline: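 Primer extension turned Universal Agilent oligonucleotide arrays double-stranded. They were incubated with 200 nM protein in PBS (pH 7.5); the protein was a GST-fused Tbr T-box DNA-binding domain expressed in BL21 E. coli at 20 °C and purified on glutathione. Every ungapped 8-mer was scored from the scanned, quantified probe intensities, and the Universal PBM Analysis Suite gave each an enrichment E-score averaged over duplicate arrays.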

Sequence | PBM E-score of 8-mer
ACACGAAT | 0.0562 ± 0.031
GTATCGGA | 0.0214 ± 0.043
AAGCCAGA | -0.361 ± 0.047
AACCTAAT | -0.165 ± 0.011
ACTACCGA | -0.178 ± 0.036
ATTCCGCG | 0.0565 ± 0.061
AATATGAA | -0.127 ± 0.096
CTGCCTGA | -0.304 ± 0.01
AGTTTTAG | 0.158 ± 0.011
GTTACTTA | -0.0186 ± 0.0063
GCGCCCGA | 0.075 ± 0.0029
AAGACGCA | 0.0881 ± 0.014
TAGCGACA | 0.308 ± 0.024
CACCAGAG | 0.157 ± 0.016
AAATAAGG | -0.202 ± 0.049
AGCTCCAC | 0.0522 ± 0.059
AGGAAGAC | -0.135 ± 0.086
ACACGATG | 0.194 ± 0.024
GGTATAAC | -0.0329 ± 0.043
ACGCCTCA | 0.331 ± 0.01
ATCGGCGC | 0.0488 ± 0.056
GCATTAAC | 0.0789 ± 0.044
TCGGGGCA | -0.271 ± 0.015
TCATCGGA | -0.202 ± 0.0093
GTGCTTAA | -0.00664 ± 0.045

Sequence | PBM E-score of 8-mer
CCAGAAGG | -0.0595 ± 0.017
ACATTTTC | 0.112 ± 0.042
GACCTCCC | -0.159 ± 0.12
TAGGATAA | -0.162 ± 0.0092
CGCTAACC | 0.19 ± 0.0091
ATCGTCAC | 0.381 ± 0.011
GGACATGA | -0.0912 ± 0.042
ATCCTAAA | -0.337 ± 0.039
ACAACTAA | 0.155 ± 0.064
GCAAGTCA | 0.163 ± 0.0037
ACTGACAA | 0.165 ± 0.0096
ACCTAATA | 0.0744 ± 0.042
AGTCGGGC | -0.0442 ± 0.069
ACTGCTCC | -0.0216 ± 0.055
GGAGCTGA | -0.203 ± 0.042
AACGCGTG | 0.309 ± 0.034
AGGTTCAG | -0.00225 ± 0.011
CTTCCTCC | -0.204 ± 0.065
CTTAAAAA | -0.117 ± 0.16
AAGTCACC | -0.102 ± 0.077
CTAAGCTA | -0.202 ± 0.023
ACGTCGGA | 0.0819 ± 0.03
ACAGCTGA | 0.0609 ± 0.041
AGAATTAT | -0.182 ± 0.066
CGCGCCGC | 0.264 ± 0.03

Sequence | PBM E-score of 8-mer
CATGGACG | -0.0352 ± 0.046
CTGTGCCA | 0.0323 ± 0.097
CGCTCCCG | -0.0657 ± 0.016
ACCAACCC | -0.129 ± 0.036
CTTAGATC | -0.11 ± 0.11
CTGAACAA | -0.0667 ± 0.0045
CGAAATCG | 0.2456 ± 0.0015
AAGGGTAA | -0.088 ± 0.0016
GATGGTCA | -0.2479 ± 0.00035
AAATCAGG | -0.253 ± 0.14
CCAGAGGA | 0.0396 ± 0.008
CCGAACGC | -0.0118 ± 0.08
ACACGAGG | 0.0971 ± 0.016
CCTCCGAG | -0.0637 ± 0.023
TGCAAGAA | -0.0626 ± 0.014
GAATGGAA | -0.209 ± 0.062
GGATCGGA | -0.194 ± 0.042
CACGTCAC | 0.279 ± 0.04
GGGATCCA | -0.104 ± 0.035
CGTGTAGA | 0.0779 ± 0.011
CAATATAA | 0.00368 ± 0.12
TGCGAGCA | 0.203 ± 0.026
CGTACGGC | -0.245 ± 0.017
ATATAACG | 0.0543 ± 0.025
AGGTGACG | 0.453 ± 0.0078

Sequence | PBM E-score of 8-mer
AAGAGTCG | -0.0522 ± 0.054
CCCGAGAA | 0.0759 ± 0.023
ATACCCAG | -0.0897 ± 0.035
ATTGAACA | 0.00183 ± 0.03
ACGGCTAG | 0.0477 ± 0.031
GGTGACTA | 0.196 ± 0.039
CCTGATGC | 0.028 ± 0.01
AACCCATT | -0.177 ± 0.02
ACTGTATG | 0.0126 ± 0.017
CGGCCAGA | -0.239 ± 0.051
GGGTCCCA | -0.11 ± 0.006
CCGGCACG | 0.0831 ± 0.0094
CGGCTAAG | -0.179 ± 0.0048
AAAGCTAG | 0.0291 ± 0.063
CTCGAGGC | 0.0155 ± 0.045
CCCCGCAG | 0.00123 ± 0.069
CCTCTATA | -0.145 ± 0.017
ACGAAAAA | 0.0295 ± 0.058
CGCAGCGA | 0.123 ± 0.085
CGCGCGTC | 0.285 ± 0.0037
ATTGTCGC | 0.263 ± 0.028
ATATGAGG | -0.0598 ± 0.035
CGAAGCCC | -0.203 ± 0.036
GGCCACAA | 0.0675 ± 0.11
AAGCAGTG | -0.0374 ± 0.056

Sequence | PBM E-score of 8-mer
GAAACGGA | -0.0529 ± 0.085
CGCAGGCC | -0.219 ± 0.079
GTGCACGA | 0.0777 ± 0.035
GGAGTGAC | 0.276 ± 0.028
CAGAGAGG | -0.256 ± 0.071
CCTTCTCG | -0.0292 ± 0.051
ATGATATG | -0.0268 ± 0.05
GTCGAACA | 0.0974 ± 0.0084
ACTTTGAA | -0.115 ± 0.07
CAGTAGTC | -0.277 ± 0.0045
CACCGCTC | -0.0244 ± 0.057
ATCACCAC | 0.113 ± 0.004
ATAAGGGC | -0.203 ± 0.01
ACTTAGCG | 0.132 ± 0.038
AGGCAAAC | -0.124 ± 0.076
AATCTAAA | -0.114 ± 0.18
CTGATATC | -0.129 ± 0.0017
AGATGAGA | -0.0859 ± 0.041
ACCCTGAT | -0.0972 ± 0.0089
AACGATGG | -0.114 ± 0.037
ACAGAACT | -0.144 ± 0.0088
AAGTCTAG | -0.18 ± 0.1
ACCATGAC | -0.0371 ± 0.016
ACACAGTA | 0.116 ± 0.02
ATTTGACC | -0.268 ± 0.041

Sequence | PBM E-score of 8-mer
GCAAGGAC | -0.0951 ± 0.075
GCACCTGA | 0.386 ± 0.0077
AAGACAAC | -0.00027 ± 0.037
GCGGAAAA | -0.0586 ± 0.00091
TCTGCACA | 0.174 ± 0.07
GACTGTTA | 0.199 ± 0.029
CTGTTCCA | -0.12 ± 0.029
AAGCAGGC | -0.0614 ± 0.02
ATCATCCG | -0.0848 ± 0.11
TCGGCACA | 0.183 ± 0.032
GACGGCCC | -0.127 ± 0.05
ACCCGGCT | -0.22 ± 0.011
CCGAGTTA | -0.114 ± 0.095
ATGGGTGC | 0.131 ± 0.087
CTTCGTGA | 0.06 ± 0.073
AGGAGTCC | -0.268 ± 0.06
AGGATCTC | 0.0127 ± 0.052
AAACACTC | 0.167 ± 0.029
CTGCACAA | -0.0168 ± 0.015
CAACCGAC | 0.0155 ± 0.024
AGCACACA | 0.113 ± 0.046
ATTTGATG | -0.207 ± 0.0081
ACGCTCTG | -0.0868 ± 0.028
CCACCATA | -0.12 ± 0.0082
GTCTCCCA | -0.0763 ± 0.029

Sequence | PBM E-score of 8-mer
ACATTCAC | 0.26 ± 0.018
ACGTTAAC | 0.255 ± 0.013
CGAAGATA | 0.0301 ± 0.04
AGAAGGGG | 0.0152 ± 0.044
CATCCTTA | -0.00751 ± 0.052
CCTGCGCG | 0.156 ± 0.018
CCGCCTCA | 0.00768 ± 0.15
ATTGACTA | -0.198 ± 0.0081
CCAGGGAG | -0.214 ± 0.045
CTCTTGGA | -0.2 ± 0.00063
GAAATCTC | 0.0351 ± 0.0081
GGCCGTCA | 0.029 ± 0.026
AAAGTCCG | 0.0167 ± 0.069
AGACTGAA | -0.164 ± 0.0092
ACCTCCAT | 0.0951 ± 0.0064
CCCGTTCG | 0.0398 ± 0.071
AACTTGGT | -0.0559 ± 0.074
CACGAGAC | -0.0763 ± 0.018
CCGAACTA | -0.132 ± 0.026
ATTCAGAG | -0.133 ± 0.01
GTCGGTCA | -0.0581 ± 0.011
ACGCCTAG | 0.269 ± 0.023
AAACGGTT | -0.101 ± 0.098
CGGGTCAC | 0.195 ± 0.02
CGTATCAG | 0.0421 ± 0.075

Sequence | PBM E-score of 8-mer
AGAATCGA | -0.069 ± 0.012
GTGCGTCA | 0.187 ± 0.009
CAACTAGC | 0.0176 ± 0.017
CTTTTAAC | 0.114 ± 0.064
GTGCCGTA | -0.0304 ± 0.0083
GGTACGCA | -0.181 ± 0.028
CGGACAGA | -0.144 ± 0.016
CCCGGACA | 0.0253 ± 0.053
ATCCAGCC | -0.0901 ± 0.0022
CTTATGTA | -0.274 ± 0.063
TAACGTAA | -0.146 ± 0.036
ACACGCGA | 0.262 ± 0.056
TAGATTCA | -0.00728 ± 0.084
GAGGAGGA | -0.0237 ± 0.037
CCCTGCCG | 0.055 ± 0.051
AATTATTG | -0.246 ± 0.057
ACCGGTAA | -0.0482 ± 0.092
GTGTCGTA | 0.3153 ± 0.0016
ACCGTTAG | 0.0867 ± 0.055
AGCCAATG | -0.218 ± 0.056
AATATGAC | 0.0199 ± 0.11
CCTATTAA | -0.139 ± 0.069
CTCTCAGA | -0.187 ± 0.0034
ACTCGTGG | -0.0812 ± 0.051
CAGATAAC | 0.0585 ± 0.039

Sequence | PBM E-score of 8-mer
GCCGTACA | -0.145 ± 0.04
CCCGCATA | -0.195 ± 0.013
AGAGAGGA | -0.144 ± 0.0029
ATTTCTGC | -0.201 ± 0.01
CTTAAGCA | -0.00802 ± 0.015
CCGCCAAC | 0.184 ± 0.013
GTGAGAAA | 0.441 ± 0.016
CCACGGGG | -0.00017 ± 0.037
AAAGAGTT | 0.0902 ± 0.077
AAACAACC | 0.00173 ± 0.005
GTTAGAAA | 0.13 ± 0.031
CCCTTTCG | -0.000915 ± 0.066
AACTTCAC | 0.147 ± 0.036
AGGCTAGC | -0.0657 ± 0.01
AGTTCTAG | -0.104 ± 0.036
CAGCCAAG | -0.0575 ± 0.018
AACTGGGG | -0.216 ± 0.021
ATGTAACG | -0.0468 ± 0.037
AAAGACAC | 0.148 ± 0.0063
ATACTACC | -0.127 ± 0.025
CGAACAAC | 0.1781 ± 9.9e-05
ATAATACA | -0.113 ± 0.092
CGTCAGCC | 0.0402 ± 0.028
